{
  "source": "the supplement of paper PMC7826260",
  "note": "The list shows a part of the results. Each Rep nickase domain was tested in vitro on the same pool of single strands (1 h at 37 °C, 3 µM enzyme); the outer parts of the 90-letter strands are left off. Values are log2 of uncut reads against the no-enzyme pool; the lower, the more was cut; hits are not called. Shares of all reads are compared; uncut strands gain when others are lost, and binding without cutting may add a little.",
  "data": [
    {"system": "T1, Rep nickase domain of tomato golden mosaic virus", "T1 sequence (Rep 1-124, printed without the tag)": "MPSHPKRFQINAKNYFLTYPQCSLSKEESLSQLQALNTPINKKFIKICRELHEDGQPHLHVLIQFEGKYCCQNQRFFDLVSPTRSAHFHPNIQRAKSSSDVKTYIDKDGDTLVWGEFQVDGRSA", "test": "uncleaved DNA left, log2 of reads against the no-enzyme library (log2 ratio); higher = less cleavage (more negative = more Rep cleavage of the k-mer); sequences stand for … in CTCGTCCG…ACCGGAGA", "protocol": "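A pool of 90-nt single-stranded DNAs with seven random bases just before the constant AC of the nick site (name = the seven bases) was cut by 3 µM recombinant His6-SUMO-tagged Rep nickase domain (300 nM DNA, 50 mM HEPES pH 8.0, 50 mM NaCl, 1 mM MnCl2, 1 h, 37 °C, three replicates). Uncut DNA was amplified and sequenced.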", "values": [
      {"sequence": "CTCCAAC", "uncleaved DNA left (log2)": -0.115},
      {"sequence": "TTACCCA", "uncleaved DNA left (log2)": -0.0617},
      {"sequence": "AATAAGC", "uncleaved DNA left (log2)": 0.165},
      {"sequence": "AAACTAG", "uncleaved DNA left (log2)": 0.12},
      {"sequence": "ATTTCGC", "uncleaved DNA left (log2)": 0.00164},
      {"sequence": "CGTACAG", "uncleaved DNA left (log2)": 0.059},
      {"sequence": "CAGCCGC", "uncleaved DNA left (log2)": -0.209},
      {"sequence": "ACTACCT", "uncleaved DNA left (log2)": -0.0948},
      {"sequence": "TAGCCAG", "uncleaved DNA left (log2)": -0.0825},
      {"sequence": "CATAGCA", "uncleaved DNA left (log2)": 0.0233},
      {"sequence": "ATGATCG", "uncleaved DNA left (log2)": -0.113},
      {"sequence": "AACAAAC", "uncleaved DNA left (log2)": -0.0333},
      {"sequence": "GGCCGGC", "uncleaved DNA left (log2)": 0.0203},
      {"sequence": "TTAGAAG", "uncleaved DNA left (log2)": 0.155},
      {"sequence": "CGCCACC", "uncleaved DNA left (log2)": -0.0637},
      {"sequence": "TCGTAAT", "uncleaved DNA left (log2)": 0.132},
      {"sequence": "CGATGTC", "uncleaved DNA left (log2)": -0.144},
      {"sequence": "ACGAAGC", "uncleaved DNA left (log2)": 0.0916},
      {"sequence": "GGGCGTC", "uncleaved DNA left (log2)": -0.0997},
      {"sequence": "CGTTTGC", "uncleaved DNA left (log2)": -0.0673},
      {"sequence": "ATCTGAG", "uncleaved DNA left (log2)": 0.0774},
      {"sequence": "GCCGTGC", "uncleaved DNA left (log2)": 0.0664},
      {"sequence": "ACTATTA", "uncleaved DNA left (log2)": 0.181},
      {"sequence": "TAGAGCT", "uncleaved DNA left (log2)": -0.00241},
      {"sequence": "GGCTCCG", "uncleaved DNA left (log2)": 0.0166},
      {"sequence": "TTACTTG", "uncleaved DNA left (log2)": -0.116},
      {"sequence": "AAGGTGC", "uncleaved DNA left (log2)": 0.0526},
      {"sequence": "TCGCGCC", "uncleaved DNA left (log2)": -0.123},
      {"sequence": "TTGCAAT", "uncleaved DNA left (log2)": 0.112},
      {"sequence": "GAAGGTC", "uncleaved DNA left (log2)": 0.132},
      {"sequence": "CCTCATG", "uncleaved DNA left (log2)": -0.00689},
      {"sequence": "CAATCCG", "uncleaved DNA left (log2)": -0.0576},
      {"sequence": "TGCGTTA", "uncleaved DNA left (log2)": 0.125},
      {"sequence": "CGGCCAC", "uncleaved DNA left (log2)": -0.185},
      {"sequence": "GCATTTG", "uncleaved DNA left (log2)": -0.024},
      {"sequence": "TTTACGC", "uncleaved DNA left (log2)": -0.03},
      {"sequence": "CTCAAAT", "uncleaved DNA left (log2)": 0.0516},
      {"sequence": "CATCTGA", "uncleaved DNA left (log2)": -0.0904},
      {"sequence": "GGACTTC", "uncleaved DNA left (log2)": 0.0718},
      {"sequence": "CCGCATT", "uncleaved DNA left (log2)": -0.191}
    ]}
  ]
}
